# Hit rate of the full screen: of about 390,000 compounds, about 930 (0.24%) were called active. Inconclusive results, whose numbers are uncertain, are shown with a selection of clear calls. Calls come from the whole dose curve; as a rule, active = well fitted activation curve with a large enough effect; inconclusive = small, poorly fitted or top-dose-only effect; inactive = no such curve, though single readings can be large or run the other way. Potencies of inconclusive entries are doubtful fits and often do not repeat.
# Test: qHTS for Suppressors of FUS Proteinopathy: Primary screen using FUS-linked yeast assay; note: nearly all actives have a fitted effect of over 55% in size;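 for growth rescue (activation): plate controls were DMSO vehicle for no effect and reference control for full effect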
# Conditions: S. cerevisiae FUS-expressing, OD600, 24 h; Potency: growth rescue; growth rescue (activation): at 76.6 µM (top of the series)
# In short: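 Toxicity suppression screen in FUS-yeast. Cells induced with 2% galactose, starting OD 0.005, treated 24hr at 30C with compounds at multiple final concentrations; growth by OD600.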
# Potency is the fitted concentration of half-maximal effect; tags give direction and shape of the fitted curve.
Structure (SMILES),Potency,growth rescue (activation)
CCOc1ccccc1CNc1ccc(O)cc1,"inconclusive: 25.1 µM [activator, partial curve, poor fit]",–
CCOC(=O)CSc1nc(N)c(C(=O)Nc2ccc(N(C)C)cc2)s1,active: 31.6 µM,–
CCNC(=O)C1(C)CCCN1C(=O)c1cnc2ccccc2n1 (stereo unspecified),–,inactive: -8.68%
CCOC(=O)c1c(Nc2ccccc2OCCOC)n[nH]c1C,–,inactive: -14.9%
CCc1ccc(OCC(=O)NC(=S)Nc2ccc(F)cc2)c(Br)c1,"inconclusive: 2.82 µM [activator, full curve, poor fit]",–
CN(C)C(=O)c1ccc2c(c1)N(CC(=O)NCc1ccccc1Cl)C(=O)C1CCCCN21 (stereo unspecified),–,inactive: 0.0869%
CNC(=O)NC(=O)COC(=O)c1n[nH]c2ccccc12,–,inactive: 4.32%
Cc1ccc2occ(-c3cc(-c4ccc(F)cc4)nc4c3COc3ccc(F)cc3-4)c(=O)c2c1,–,inactive: 5.62%
Cc1cccc(OCC(O)CN2CCOCC2)c1 (stereo unspecified),–,inactive: -17.1%
O=S(=O)(Nc1ccc(-c2nc3ccccc3o2)cc1)c1ccccc1,–,inactive: 22.8%
Cn1c2cc(C#N)sc2c2cnn(Cc3ccc(F)cc3)c(=O)c21,"inconclusive: 25.1 µM [activator, single point]",–
CCCCN1C[C@@H](COCc2ccccc2)Oc2cccc(F)c2S1(=O)=O,–,inactive: 10.1%
C#CCNC(=O)C[C@@H]1C[C@@]2(C(=O)OC)CCCCC=C2N(CCCCCCCC)C1=O,"inconclusive: 20 µM [activator, partial curve]",–
CCOC1=C2[C@@H](CN(S(=O)(=O)c3ccc(C)cc3)[C@H]2c2cccc3ccccc23)[C@H]2C(=O)N(CC)C(=O)[C@H]2C1,"inconclusive: 14.1 µM [activator, partial curve]",–
CCN(CC)C(=O)[C@H]1CC(CC(=O)NCCC2=CCCCC2)C(=O)N2CCc3c([nH]c4ccc(OC)cc34)[C@]12C (stereo partly specified),–,inactive: 23.2%
CCCCNC(=O)C[C@H]1C[C@@]2(C(=O)OC)C(=C[C@H](C(C)(C)C)O[C@@H]2C)N(Cc2cccc3ccccc23)C1=O,"inconclusive: 10 µM [activator, full curve, poor fit]",–
COc1ccc(OC)c(CNC(=O)c2ccc3c(c2)c(C)c(C)n3C)c1,"inconclusive: 44.7 µM [activator, single point]",–
O=[N+]([O-])/C=C/c1cn(Cc2ccc(F)cc2)c2ccccc12,–,inactive: 1.13%
O=C(O)c1[nH]c2ccccc2c1C(c1cc(Cl)cc([N+](=O)[O-])c1O)c1c(C(=O)O)[nH]c2ccccc12,"inconclusive: 50.1 µM [activator, single point]",–
COc1ccc(N2CCN(C(=O)CN3C(=O)COc4ccc(S(=O)(=O)N5CCC(C)CC5)cc43)CC2)cc1,"inconclusive: 10 µM [activator, partial curve, poor fit]",–
Cc1cccc(NC(=O)CSc2nnnn2-c2cccnc2)c1,–,inactive: 8.87%

Structure (SMILES),Potency,growth rescue (activation)
COc1ccc(NC(=O)c2oc3ccccc3c2NC(=O)Cc2coc3ccc(C)cc23)cc1,–,inactive: -7.14%
CCN(CC)C(=O)/C(=C/c1ccc2c(c1)OCO2)NC(=O)c1ccc(Br)cc1,"inconclusive: 31.6 µM [activator, partial curve, poor fit]",–
CCc1ccc(-n2c(C)cc(/C=N/NC(=O)OC)c2C)cc1,"inconclusive: 39.8 µM [activator, single point]",–
C=CCn1c(Cc2cccs2)nnc1SCC(=O)Nc1ccc(C)cc1,–,inactive: 7.79%
CCc1ccc(NC(=O)CSc2nc(-c3cccc(OC)c3)nc3c2Cc2c(CO)cnc(C)c2O3)cc1,–,inactive: -11.5%
O=C(NCCc1ccccc1)c1ccc(Cn2c(SCc3ccccc3F)nc3cccnc32)cc1,"inconclusive: 31.6 µM [activator, single point]",–
C[C@@]12C(=O)N(c3cccc(Cl)c3)C(=O)N1[C@H](c1ccc(Cl)cc1)[C@@H]1C(=O)N(C3CCCCC3)C(=O)[C@@H]12,"inconclusive: 20 µM [activator, partial curve]",–
CCOc1cc2c3c(c1)C1(C(=O)N3C(C)(C)CC2C)C(C#N)=C(N)N2C(=C1C#N)Nc1ccccc12 (stereo unspecified),"inconclusive: 12.6 µM [activator, partial curve, poor fit]",–
COc1cc2c(cc1NC(=O)CSc1nnc(-c3cnccn3)n1-c1ccc(C)cc1)oc1ccccc12,active: 17.8 µM,–
COc1ccc(-c2nc(CN3CCN(c4ncnc5ccccc45)CC3)c(C)o2)c(OC)c1,–,inactive: 5.5%
Cc1ccc(C(=O)ON=C2CCN(c3ccc([N+](=O)[O-])cc3)CC2)cc1,"inconclusive: 25.1 µM [activator, partial curve, poor fit]",–
C#CCOCCOCCOCCNc1nc(N2CCN(C(=O)CCCCCCCCCCNC(=O)Cn3cc(C[C@@H](C)O)nn3)CC2)nc(N2CCN(C(=O)CCCCCCCCCCNC(=O)Cn3cc(C[C@@H](C)O)nn3)CC2)n1,"inconclusive: 14.1 µM [activator, partial curve, poor fit]",–
Cc1ccc2c(CC(=O)N3CCN(S(=O)(=O)c4ccc5c(c4)OCCO5)CC3)coc2c1,"inconclusive: 25.1 µM [activator, single point]",–
O=C(NCCc1ccc(Cl)cc1)C(=O)NCC(c1cccs1)S(=O)(=O)c1cccs1 (stereo unspecified),–,inactive: 6.79%
Cc1cc(Cl)ccc1NC(=S)NCc1ccc(F)cc1,–,inactive: 5.83%
CC(C)C1N=C2c3ccccc3N=C(SCC(=O)c3ccc(O)c(O)c3)N2C1=O (stereo unspecified),"inconclusive: 17.8 µM [activator, partial curve]",–
CCCCOCCCNC(=O)C[C@H]1C[C@@]2(C(=O)OC)C(=C[C@H](C(C)(C)C)O[C@@H]2C)N(Cc2ccc(Cl)cc2Cl)C1=O,"inconclusive: 2.82 µM [activator, full curve]",–
C=Cc1ccc(Cn2c(C(=O)O)c(CNC3CCCCC3)c3ccc(OC)cc32)cc1,"inconclusive: 44.7 µM [activator, single point]",–
COc1ccc(CN(C)C(=O)c2ccc(OCC(=O)Nc3cccc(C(F)(F)F)c3)c(OC)c2)cc1,"inconclusive: 25.1 µM [activator, single point]",–
CC/C(=N\NC(=S)Nc1cccc(C)c1)c1ccccc1,"inconclusive: 2.51 µM [activator, full curve]",–

# Reference: PubChem BioAssay AID1347120 (National Center for Advancing Translational Sciences (NCATS), 2019)
